Experimental data as given in the supplement of paper PMC9151546.
Single values are uncertain, as repeats are few or missing.

Columns and labels:
CHO-K1 [1] = test: relative survival (nuclei to bead ratio vs DMSO control) (% of vehicle control); higher = more surviving cells
CHO-K1 [2] = test: micronucleus frequency (% of nucleated events); higher = more micronuclei (genotoxic)
CHO-K1 [3] = test: hypodiploid nuclei frequency (% of nucleated events); higher = more hypodiploid events (aneugenic)
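Wherever hypodiploid nuclei frequency (% of nucleated events) is given: hypodiploid nuclei gated on a flow cytometer with 488 nm excitation after SYTOX Green staining, cultures at 37 °C, positive controls vinblastine without S9 and cyclophosphamide with S9.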
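Wherever micronucleus frequency (% of nucleated events) is given: cells lysed with nuclei stained by SYTOX Green, then micronucleus-gated events counted against nucleated events by flow cytometry with 488 nm excitation.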
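Wherever relative survival (nuclei to bead ratio vs DMSO control) is given: Lysed-cell nuclei stained with SYTOX Green and counted against counting beads by flow cytometry at 488 nm excitation, with vinblastine (no S9) and cyclophosphamide (plus S9) as positive controls.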

Clc1ccc(C(c2ccc(Cl)cc2)C(Cl)(Cl)Cl)cc1 [p,p'-DDT]
Conditions | hypodiploid nuclei frequency, CHO-K1 [3] [%] | micronucleus frequency, CHO-K1 [2] [%] | relative survival, CHO-K1 [1]
concentration: 4.5 (µM), S9 metabolic activation: with S9, exposure time: 3-4 hours | 0.26 | 1.1 | 122
concentration: 4.5 (µM), S9 metabolic activation: without S9, exposure time: 24 hours | 0.32 | 2.26 | 87.3
concentration: 5.63 (µM), S9 metabolic activation: with S9, exposure time: 3-4 hours | 0.24 | 1.04 | 108
concentration: 5.63 (µM), S9 metabolic activation: without S9, exposure time: 24 hours | 0.58 | 1.94 | 85.3
concentration: 7.04 (µM), S9 metabolic activation: with S9, exposure time: 3-4 hours | 0.24 | 0.94 | 92.8
concentration: 7.04 (µM), S9 metabolic activation: without S9, exposure time: 24 hours | 0.5 | 1.92 | 77.8
concentration: 8.8 (µM), S9 metabolic activation: with S9, exposure time: 3-4 hours | 0.2 | 1.28 | 98.6
concentration: 8.8 (µM), S9 metabolic activation: without S9, exposure time: 24 hours | 0.48 | 2.28 | 83.3
concentration: 11 (µM), S9 metabolic activation: with S9, exposure time: 3-4 hours | 0.24 | 1.16 | 126
concentration: 11 (µM), S9 metabolic activation: without S9, exposure time: 24 hours | 0.4 | 2.02 | 101
concentration: 13.7 (µM), S9 metabolic activation: with S9, exposure time: 3-4 hours | 0.2 | 1.04 | 143
concentration: 13.7 (µM), S9 metabolic activation: without S9, exposure time: 24 hours | 0.32 | 2.14 | 79.5
concentration: 17.2 (µM), S9 metabolic activation: with S9, exposure time: 3-4 hours | 0.22 | 1.32 | 125
concentration: 17.2 (µM), S9 metabolic activation: without S9, exposure time: 24 hours | 0.6 | 3.42 | 68.2
concentration: 21.5 (µM), S9 metabolic activation: with S9, exposure time: 3-4 hours | 0.26 | 1 | 97
concentration: 21.5 (µM), S9 metabolic activation: without S9, exposure time: 24 hours | 0.4 | 1.9 | 86.3
concentration: 26.8 (µM), S9 metabolic activation: with S9, exposure time: 3-4 hours | 0.08 | 1.24 | 74
concentration: 26.8 (µM), S9 metabolic activation: without S9, exposure time: 24 hours | 0.4 | 1.14 | 82
concentration: 33.6 (µM), S9 metabolic activation: with S9, exposure time: 3-4 hours | 0.18 | 1.04 | 95.7
concentration: 33.6 (µM), S9 metabolic activation: without S9, exposure time: 24 hours | 0.52 | 0.98 | 86.3
concentration: 41.9 (µM), S9 metabolic activation: with S9, exposure time: 3-4 hours | 0.16 | 1.1 | 89.8
concentration: 41.9 (µM), S9 metabolic activation: without S9, exposure time: 24 hours | 0.64 | 1.98 | 65.6
concentration: 52.4 (µM), S9 metabolic activation: with S9, exposure time: 3-4 hours | 0.1 | 1.44 | 97.5
concentration: 52.4 (µM), S9 metabolic activation: without S9, exposure time: 24 hours | 0.56 | 1.84 | 71.8
concentration: 65.5 (µM), S9 metabolic activation: with S9, exposure time: 3-4 hours | 0.24 | 1.66 | 99.5
concentration: 65.5 (µM), S9 metabolic activation: without S9, exposure time: 24 hours | 0.68 | 2 | 56
concentration: 81.9 (µM), S9 metabolic activation: with S9, exposure time: 3-4 hours | 0.16 | 1.3 | 90.6
concentration: 81.9 (µM), S9 metabolic activation: without S9, exposure time: 24 hours | 0.5 | 2.6 | 52.3
concentration: 102 (µM), S9 metabolic activation: with S9, exposure time: 3-4 hours | 0.22 | 1.12 | 83.3
concentration: 102 (µM), S9 metabolic activation: without S9, exposure time: 24 hours | 0.64 | 3.5 | 53.8
concentration: 128 (µM), S9 metabolic activation: with S9, exposure time: 3-4 hours | 0.52 | 2.03 | 55.4
concentration: 128 (µM), S9 metabolic activation: without S9, exposure time: 24 hours | 0.35 | 5.04 | 48.5
concentration: 160 (µM), S9 metabolic activation: with S9, exposure time: 3-4 hours | 0.27 | 1.33 | 43.4
concentration: 160 (µM), S9 metabolic activation: without S9, exposure time: 24 hours | – | – | 18.4
concentration: 200 (µM), S9 metabolic activation: with S9, exposure time: 3-4 hours | 0.3 | 7.57 | 47.1
concentration: 200 (µM), S9 metabolic activation: without S9, exposure time: 24 hours | – | – | 7.27
